Assay results: the supplement of paper PMC4967469

Legend:
Assay in all cases: Viability of human cancer cell lines after 72 h of drug (GDSC screen)
STF-62247 = compound: Cc1cccc(Nc2nc(-c3ccncc3)cs2)c1 [STF-62247]; settings: top dose 10.24 µM; top dose inferred
Procedure: (§1)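 Human cancer cell lines in 384-well plates, medium with 10% serum, drug for 72 h over a 256-fold dose range (nine 2-fold or five 4-fold steps up to the top dose). Adherent lines were fixed and stained with the nucleic acid dye Syto60, suspension lines read with resazurin; signal relative to control wells, capped at 0 and 100%. One two-parameter sigmoid per drug and line, fitted in a mixed model over all curves with the slope shared within a line.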

CP724714 = compound: COCC(=O)NC/C=C/c1ccc2ncnc(Nc3ccc(Oc4ccc(C)nc4)c(C)c3)c2c1 [CP724714]; settings: top dose 10.24 µM; top dose inferred
Procedure: as §1

Obatoclax mesylate = compound: COC1=CC(c2cc3ccccc3[nH]2)=N/C1=C\c1[nH]c(C)cc1C [Obatoclax mesylate]; settings: top dose 16 µM
Procedure: as §1

CX-5461 = compound: Cc1cnc(CNC(=O)c2c(=O)c3ccc(N4CCCN(C)CC4)nc3n3c2sc2ccccc23)cn1 [CX-5461]; settings: top dose 10.24 µM; top dose inferred
Procedure: as §1

| Cell Line | AUC (STF-62247) | IC50 (STF-62247) | AUC (CP724714) | IC50 (CP724714) | AUC (Obatoclax mesylate) | IC50 (Obatoclax mesylate) | AUC (CX-5461) | IC50 (CX-5461) |
| --- | --- | --- | --- | --- | --- | --- | --- | --- |
| MIA-PaCa-2 (pancreas, adherent) | 0.972 | > 10.2 µM | 0.971 | > 10.2 µM | 0.312 | 0.28 µM | 0.985 | > 10.2 µM |
| MKN1 (stomach, adherent) | 0.983 | > 10.2 µM | 0.967 | > 10.2 µM | 0.295 | 0.256 µM | 0.952 | > 10.2 µM |
| MKN28 (stomach, adherent) | 0.971 | > 10.2 µM | 0.978 | > 10.2 µM | 0.212 | 0.139 µM | 0.601 | 1.22 µM |
| MKN45 (stomach, adherent) | 0.983 | > 10.2 µM | 0.981 | > 10.2 µM | 0.577 | 1.72 µM | 0.911 | > 10.2 µM |
| ML-1 (thyroid, adherent) | 0.984 | > 10.2 µM | 0.984 | > 10.2 µM | 0.313 | 0.272 µM | 0.944 | > 10.2 µM |
| MOG-G-CCM (glioma, adherent) | 0.942 | > 10.2 µM | 0.951 | > 10.2 µM | 0.245 | 0.16 µM | 0.811 | 6.59 µM |
| MOG-G-UVW (glioma, adherent) | 0.98 | > 10.2 µM | 0.986 | > 10.2 µM | 0.229 | 0.168 µM | 0.62 | 1.35 µM |
| MS751 (cervix, adherent) | 0.99 | > 10.2 µM | 0.984 | > 10.2 µM | 0.585 | 1.67 µM | 0.99 | > 10.2 µM |
| Mewo (melanoma, adherent) | 0.972 | > 10.2 µM | 0.968 | > 10.2 µM | 0.682 | 3.59 µM | 0.985 | > 10.2 µM |
| NAMALWA (Burkitt lymphoma, suspension) | 0.991 | > 10.2 µM | 0.976 | > 10.2 µM | 0.163 | 0.119 µM | 0.369 | 0.296 µM |
| NCI-H28 (mesothelioma, adherent) | 0.979 | > 10.2 µM | 0.978 | > 10.2 µM | 0.481 | 0.872 µM | 0.937 | > 10.2 µM |
| NCI-H196 (small cell lung carcinoma, adherent) | 0.845 | 7.93 µM | 0.988 | > 10.2 µM | 0.783 | 7.06 µM | 0.988 | > 10.2 µM |
| NCI-H292 (lung adenocarcinoma, adherent) | 0.98 | > 10.2 µM | 0.978 | > 10.2 µM | 0.282 | 0.209 µM | 0.585 | 1.15 µM |
| NCI-H358 (lung adenocarcinoma, adherent) | 0.977 | > 10.2 µM | 0.889 | > 10.2 µM | 0.229 | 0.146 µM | 0.55 | 0.888 µM |
| NCI-H441 (lung adenocarcinoma, adherent) | 0.979 | > 10.2 µM | 0.97 | > 10.2 µM | 0.302 | 0.219 µM | 0.981 | > 10.2 µM |
| NCI-H460 (large cell lung carcinoma, adherent) | 0.989 | > 10.2 µM | 0.989 | > 10.2 µM | 0.171 | 0.115 µM | 0.99 | > 10.2 µM |
| NCI-H520 (lung squamous cell carcinoma, adherent) | 0.98 | > 10.2 µM | 0.976 | > 10.2 µM | 0.234 | 0.165 µM | 0.541 | 0.829 µM |
| NCI-H522 (lung adenocarcinoma, adherent) | 0.97 | > 10.2 µM | 0.98 | > 10.2 µM | 0.32 | 0.283 µM | 0.984 | > 10.2 µM |
| NCI-H596 (lung adenocarcinoma, adherent) | 0.982 | > 10.2 µM | 0.954 | > 10.2 µM | 0.288 | 0.209 µM | 0.851 | > 10.2 µM |
| NCI-H647 (non-small cell lung carcinoma, adherent) | 0.984 | > 10.2 µM | 0.954 | > 10.2 µM | 0.349 | 0.374 µM | 0.775 | 4.25 µM |
| NCI-H661 (large cell lung carcinoma, adherent) | 0.965 | > 10.2 µM | 0.927 | > 10.2 µM | 0.535 | 1.27 µM | 0.911 | > 10.2 µM |
| NCI-H727 (lung carcinoid, adherent) | 0.961 | > 10.2 µM | 0.954 | > 10.2 µM | 0.196 | 0.0642 µM | 0.972 | > 10.2 µM |
| NCI-H810 (large cell lung carcinoma, adherent) | 0.968 | > 10.2 µM | 0.988 | > 10.2 µM | 0.171 | 0.106 µM | 0.778 | 3.95 µM |
| NCI-H838 (lung adenocarcinoma, adherent) | 0.981 | > 10.2 µM | 0.946 | > 10.2 µM | 0.373 | 0.44 µM | 0.937 | > 10.2 µM |
| NCI-H841 (small cell lung carcinoma, adherent) | 0.977 | > 10.2 µM | 0.977 | > 10.2 µM | 0.608 | 1.98 µM | 0.957 | > 10.2 µM |
| NCI-H1048 (small cell lung carcinoma, adherent) | 0.984 | > 10.2 µM | 0.973 | > 10.2 µM | 0.528 | 1.18 µM | 0.868 | 7.8 µM |
| NCI-H1435 (lung adenocarcinoma, semi-adherent) | 0.993 | > 10.2 µM | 0.993 | > 10.2 µM | 0.51 | 1.06 µM | 0.992 | > 10.2 µM |
| NCI-H1437 (lung adenocarcinoma, adherent) | 0.976 | > 10.2 µM | 0.962 | > 10.2 µM | 0.381 | 0.464 µM | 0.985 | > 10.2 µM |

IC50 is the fitted dose that halves viability relative to control wells, and lower means more sensitive; a limit (>, <) means that the fit lies beyond the doses tested. The AUC spans the tested range (256-fold, ending at the top dose) of the same fit; values near 1 show little effect. For some assays here: An inferred top dose was derived from the fitted curves, not read from the paper.
